From US11618753B2 (priority 2018, dated 2023)
Structures can show the parent of a compound that is named as a salt.

System: MLKL phosphorylation, HT29-L23 human colorectal adenocarcinoma cells
Test: cells
Conditions: read-out: pMLKL HCS Cell Assay (IC50, uM)

SMILES | IC50 [µM]
Nc1ncnn2c(-c3cc(C(=O)N[C@@H]4CN(C(=O)c5ncccc5F)C[C@@H]4F)c(Cl)cc3F)cc(C(F)(F)F)c12 [Example 404, 5-[4-amino-5-(trifluoromethyl)pyrrolo[2,1-f][1,2,4]triazin-7-yl]-2-chloro-4-fluoro-N-[(3R,4S)-4-fluoro-1-(3-fluoropyridine-2-carbonyl)pyrrolidin-3-yl] benzamide] | 0.063
Nc1ncnn2c(-c3cc(C(=O)N[C@@H]4CN(C(=O)c5ccc(F)cc5)C[C@@H]4F)c(Cl)cc3F)cc(C(F)(F)F)c12 [Example 405, 5-[4-amino-5-(trifluoromethyl)pyrrolo[2,1-f][1,2,4]triazin-7-yl]-2-chloro-4-fluoro-N-[(3R,4S)-4-fluoro-1-(4-fluorobenzoyl)pyrrolidin-3-yl]benzamide] | 0.0085
Nc1ncnn2c(-c3cc(C(=O)N[C@@H]4CN(C(=O)C5CC(F)(F)C5)C[C@@H]4F)c(Cl)cc3F)cc(C(F)(F)F)c12 [Example 406, 5-[4-amino-5-(trifluoromethyl)pyrrolo[2,1-f][1,2,4]triazin-7-yl]-2-chloro-N-[(3R,4S)-1-(3,3-difluorocyclobutanecarbonyl)-4-fluoropyrrolidin-3-yl]-4-fluorobenzamide] | 0.01
Nc1ncnn2c(-c3cc(C(=O)N[C@@H]4CN(C(=O)C5CCC(F)(F)CC5)C[C@@H]4F)c(Cl)cc3F)cc(C(F)(F)F)c12 [Example 407, 5-[4-amino-5-(trifluoromethyl)pyrrolo[2,1-f][1,2,4]triazin-7-yl]-2-chloro-N-[(3R,4S)-1-(4,4-difluorocyclohexanecarbonyl)-4-fluoropyrrolidin-3-yl]-4-fluorobenzamide] | 0.015
Nc1ncnn2c(-c3cc(C(=O)N[C@@H]4CN(C(=O)C5CC5(F)F)C[C@@H]4F)c(Cl)cc3F)cc(C(F)(F)F)c12 (stereo partly drawn) [Example 408, 5-[4-amino-5-(trifluoromethyl)pyrrolo[2,1-f][1,2,4]triazin-7-yl]-2-chloro-N-[(3R,4S)-1-(2,2-difluorocyclopropanecarbonyl)-4-fluoropyrrolidin-3-yl]-4-fluorobenzamide] | 0.012
Nc1ncnn2c(-c3cc(C(=O)N[C@@H]4CN(C(=O)C5CC(F)C5)C[C@@H]4F)c(Cl)cc3F)cc(C(F)(F)F)c12 (stereo partly drawn) [Example 409, 5-[4-amino-5-(trifluoromethyl)pyrrolo[2,1-f][1,2,4]triazin-7-yl]-2-chloro-4-fluoro-N-[(3R,4S)-4-fluoro-1-(3-fluorocyclobutane-carbonyl)pyrrolidin-3-yl] benzamide] | 0.0092
Nc1ncnn2c(-c3cc(C(=O)N[C@@H]4CN(C(=O)C5CCC(F)(F)C5)C[C@@H]4F)c(Cl)cc3F)cc(C(F)(F)F)c12 (stereo partly drawn) [Example 410, 5-[4-amino-5-(trifluoromethyl)pyrrolo[2,1-f][1,2,4]triazin-7-yl]-2-chloro-N-[(3R,4S)-1-(3,3-difluorocyclopentanecarbonyl)-4-fluoropyrrolidin-3-yl]-4-fluorobenzamide] | 0.0063
Cc1cc(F)c(-c2cc(C(F)(F)F)c3c(N)ncnn23)cc1C(=O)N[C@@H]1CN(C(=O)C2CC(F)C2)C[C@@H]1F (stereo partly drawn) [Example 411, 5-[4-amino-5-(trifluoromethyl)pyrrolo[2,1-f][1,2,4]triazin-7-yl]-4-fluoro-N-[(3R,4S)-4-fluoro-1-(3-fluorocyclobutanecarbonyl)pyrrolidin-3-yl]-2-methylbenzamide] | 0.0038
Cc1cc(F)c(-c2cc(C(F)(F)F)c3c(N)ncnn23)cc1C(=O)N[C@@H]1CN(C(=O)c2ccccc2F)C[C@@H]1F [Example 412, 5-[4-amino-5-(trifluoromethyl)pyrrolo[2,1-f][1,2,4]triazin-7-yl]-4-fluoro-N-[(3R,4S)-4-fluoro-1-(2-fluorobenzoyl)pyrrolidin-3-yl]-2-methylbenzamide] | 0.0072
Cc1cc(F)c(-c2cc(C(F)(F)F)c3c(N)ncnn23)cc1C(=O)N[C@@H]1CN(C(=O)CC(C)(C)O)C[C@@H]1F [Example 413, 5-[4-amino-5-(trifluoromethyl)pyrrolo[2,1-f][1,2,4]triazin-7-yl]-4-fluoro-N-[(3R,4S)-4-fluoro-1-(3-hydroxy-3-methylbutanoyl)pyrrolidin-3-yl]-2-methylbenzamide] | 0.048
Cc1cc(F)c(-c2cc(C(F)(F)F)c3c(N)ncnn23)cc1C(=O)N[C@@H]1CN(C(=O)[C@@](C)(O)C(F)(F)F)C[C@@H]1F [Example 414, 5-[4-amino-5-(trifluoromethyl)pyrrolo[2,1-f][1,2,4]triazin-7-yl]-4-fluoro-N-[(3R,4S)-4-fluoro-1-[(2R)-3,3,3-trifluoro-2-hydroxy-2-methylpropanoyl]pyrrolidin-3-yl]-2-methylbenzamide] | 0.011
Cc1cc(F)c(-c2cc(C(F)(F)F)c3c(N)ncnn23)cc1C(=O)N[C@@H]1CN(C(=O)[C@@H](O)C(F)(F)F)C[C@@H]1F [Example 415, 5-[4-amino-5-(trifluoromethyl)pyrrolo[2,1-f][1,2,4]triazin-7-yl]-4-fluoro-N-[(3R,4S)-4-fluoro-1-[(2R)-3,3,3-trifluoro-2-hydroxy-propanoyl]pyrrolidin-3-yl]-2-methylbenzamide] | 0.018
Cc1cc(F)c(-c2cc(C(F)(F)F)c3c(N)ncnn23)cc1C(=O)N[C@@H]1CN(C(=O)C(C)(C)O)C[C@@H]1F [Example 416, 5-[4-amino-5-(trifluoromethyl)pyrrolo[2,1-f][1,2,4]triazin-7-yl]-4-fluoro-N-[(3R,4S)-4-fluoro-1-(2-hydroxy-2-methylpropanoyl)pyrrolidin-3-yl]-2-methylbenzamide] | 0.032
Cc1cc(F)c(-c2cc(C(F)(F)F)c3c(N)ncnn23)cc1C(=O)N[C@@H]1CN(C(=O)C2CCC(F)(F)C2)C[C@@H]1F (stereo partly drawn) [Example 417, 5-[4-amino-5-(trifluoromethyl)pyrrolo[2,1-f][1,2,4]triazin-7-yl]-N-[(3R,4S)-1-(3,3-difluorocyclo-pentanecarbonyl)-4-fluoropyrrolidin-3-yl]-4-fluoro-2-methylbenzamide, TFA] | 0.0079
Nc1ncnn2c(-c3cc(C(=O)N[C@@H]4CN(C(=O)C5CC(F)(F)C5)C[C@@H]4F)ccc3F)cc(C(F)(F)F)c12 [Example 419, 3-[4-amino-5-(trifluoromethyl)pyrrolo[2,1-f][1,2,4]triazin-7-yl]-N-[(3R,4S)-1-(3,3-difluorocyclobutane-carbonyl)-4-fluoropyrrolidin-3-yl]-4-fluorobenzamide] | 0.019
CC(C)C(=O)N1C[C@H](F)[C@H](NC(=O)c2ccc(F)c(-c3cc(C(F)(F)F)c4c(N)ncnn34)c2)C1 [Example 420, 3-[4-amino-5-(trifluoromethyl)pyrrolo[2,1-f][1,2,4]triazin-7-yl]-4-fluoro-N-[(3R,4S)-4-fluoro-1-(2-methylpropanoyl)pyrrolidin-3-yl] benzamide, TFA] | 0.14
Nc1ncnn2c(-c3cc(C(=O)N[C@@H]4CN(C(=O)c5ccc(F)cc5)C[C@@H]4F)ccc3F)cc(C(F)(F)F)c12 [Example 421, 3-[4-amino-5-(trifluoromethyl)pyrrolo[2,1-f][1,2,4]triazin-7-yl]-4-fluoro-N-[(3R,4S)-4-fluoro-1-(4-fluorobenzoyl)pyrrolidin-3-yl] benzamide, TFA] | 0.037
Nc1ncnn2c(-c3cc(C(=O)N[C@@H]4CN(C(=O)C5CC5(F)F)C[C@@H]4F)ccc3F)cc(C(F)(F)F)c12 (stereo partly drawn) [Example 423, 3-[4-amino-5-(trifluoromethyl)pyrrolo [2,1-f][1,2,4]triazin-7-yl]-N-[(3R,4S)-1-(2,2-difluorocyclopropanecarbonyl)-4-fluoropyrrolidin-3-yl]-4-fluoro-benzamide] | 0.047
